Data taken from article PMC10883291 (Cancer Research Communications, 2024).

What was measured:
[1] = target: T1, cynomolgus SIRPα on CHO-K1 cells (Macaca fascicularis, UniProt A0A2K5VYQ9); assay: flow cytometry on cells; direct staining: human and cynomolgus SIRPα-overexpressing CHO-K1 cells incubated with directly conjugated BMS-986351-AF647; gMFI against antibody concentration; settings: one partner purified
T1 construct: SIRPα, cynomolgus monkey, overexpressed on CHO-K1 cells; also called macaque SIRPα; cynomolgus monkey SIRPα; source: CHO-K1, overexpressed, on cells

[2] = target: T2, rat SIRPα on CHO-K1 cells (Rattus norvegicus, UniProt P97710); assay: flow cytometry on cells; indirect staining: rat and mouse SIRPα-overexpressing CHO-K1 cells, BMS-986351 detected with anti-human AF647 secondary antibodies; gMFI against antibody concentration; settings: one partner purified
T2 construct: SIRPα, rat, overexpressed on CHO-K1 cells; also called rodent SIRPα (rat); source: CHO-K1, overexpressed, on cells

[3] = target: T3, mouse SIRPα on CHO-K1 cells (Mus musculus, strain , UniProt P97797); assay: as above; settings: one partner purified
T3 construct: SIRPα, mouse, overexpressed on CHO-K1 cells; also called rodent SIRPα (mouse); source: CHO-K1, overexpressed, on cells

[4] = target: T4, recombinant SIRPβ extracellular domain (Homo sapiens, UniProt O00241); assay: SPR; Biacore T200; purified BMS-986351 captured on a ProA sensor chip; recombinant SIRPα, SIRPβ or SIRPγ injected in 5-fold dilutions (0.08–50 nmol/L), signal over 900 seconds; regeneration with 10 mmol/L glycine pH 1.5; 1:1 Langmuir model; settings: both partners purified
T4 construct: SIRPβ, recombinant extracellular domain

[5] = target: T5, recombinant SIRPγ extracellular domain (Homo sapiens, UniProt Q9P1W8); assay: as above; settings: both partners purified
T5 construct: SIRPγ, recombinant extracellular domain

binding result [1] | binding result [2] | binding result [3] | Kd [4] [pM] | Kd [5] [pM] | Binder
binds |  |  |  |  | BMS-986351-AF647 (antibody, V domains shown, as the Fab part of the heavy chain of m1; human IgG1 Fc with lysine to alanine at position 322, as in m1; as the light chain of m1; m1 labelled with AF647 (Thermo Fisher Scientific) for direct staining of cells) VH: QVQLVQSGAEVKKPGASVKVSCKASGYTFRGYGISWVRQAPGQGLEWMGWISAYGGETNYAQKLQGRVTMTTDTSTSTAYMELRSLRSDDTAVYYCAREAGSSWYDFDLWGRGTLVTVSS VL: DIQMTQSPSSVSASVGDRVTITCRASQGISSWLAWYQQKPGKAPKLLIYAASNLQSGVPSRFSGSGSGTDFTLTISSLQPEDFATYYCQQGASFPITFGGGTKVEIK
 | no binding | no binding | 205 | 50.2 | BMS-986351 (antibody, V domains shown, Fab part of the heavy chain (variable domain and CH1); human IgG1 Fc with lysine to alanine at position 322; light chain; also called anti-SIRPα IgG1 mAb; lead mAb) VH: QVQLVQSGAEVKKPGASVKVSCKASGYTFRGYGISWVRQAPGQGLEWMGWISAYGGETNYAQKLQGRVTMTTDTSTSTAYMELRSLRSDDTAVYYCAREAGSSWYDFDLWGRGTLVTVSS VL: DIQMTQSPSSVSASVGDRVTITCRASQGISSWLAWYQQKPGKAPKLLIYAASNLQSGVPSRFSGSGSGTDFTLTISSLQPEDFATYYCQQGASFPITFGGGTKVEIK
